In paper PMC4176178 one finds binding data, which are given here for one molecule.

No constants are given. Whether binding was seen depends on the method and setting. Binding seen in cells or lysates may run through a third protein. Tags and fused reporters may be left off the sequences shown.

This experiment has as its target T1, GST-Pdcd4 (full-length human Pdcd4 fused to GST) (human) (UniProt Q53EL6).
T1 sequence: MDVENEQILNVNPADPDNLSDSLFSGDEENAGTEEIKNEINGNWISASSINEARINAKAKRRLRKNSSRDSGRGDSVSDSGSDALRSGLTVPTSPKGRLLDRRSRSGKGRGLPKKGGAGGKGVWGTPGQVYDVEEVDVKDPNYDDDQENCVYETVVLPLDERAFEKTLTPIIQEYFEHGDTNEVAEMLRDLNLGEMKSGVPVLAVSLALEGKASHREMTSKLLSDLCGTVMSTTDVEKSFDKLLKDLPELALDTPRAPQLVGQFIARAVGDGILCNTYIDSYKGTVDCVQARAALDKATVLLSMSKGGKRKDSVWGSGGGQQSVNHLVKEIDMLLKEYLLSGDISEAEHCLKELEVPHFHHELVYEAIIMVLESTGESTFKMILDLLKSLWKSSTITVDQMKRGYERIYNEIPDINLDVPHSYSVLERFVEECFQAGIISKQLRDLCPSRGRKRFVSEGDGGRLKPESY
The experiment is described as follows: pull-down; GST fusion proteins on glutathione sepharose, incubated with extract of transfected cells (QT6 fibroblasts) in ELB buffer, 1 h at 4 °C; western blotting against the Myc or Flag tag; only the target purified.

B1: Flag-tagged Tiar (protein, UniProt Q01085 1-375)
chain: MMEDDGQPRTLYVGNLSRDVTEVLILQLFSQIGPCKSCKMITEHTSNDPYCFVEFYEHRDAAAALAAMNGRKILGKEVKVNWATTPSSQKKDTSNHFHVFVGDLSPEITTEDIKSAFAPFGKISDARVVKDMATGKSKGYGFVSFYNKLDAENAIVHMGGQWLGGRQIRTNWATRKPPAPKSTQENNTKQLRFEDVVNQSSPKNCTVYCGGIASGLTDQLMRQTFSPFGQIMEIRVFPEKGYSFVRFSTHESAAHAIVSVNGTTIEGHVVKCYWGKESPDMTKNFQQVDYSQWGQWSQVYGNPQQYGQYMANGWQVPPYGVYGQPWNQQGFGVDQSPSAAWMGGFGAQPPQGQAPPPVIPPPNQAGYGMASYQTQ
With B1, the binding result was “no binding”.
